Nine variants from the supplement of paper PMC12217912 can be followed below.

Some of the results follow. The full chains were built here from the parent and the listed change. Inactive controls read about 0.05.

B1: TEV protease; numbered along this chain (parent)
chain: MGESLFKGPRDYNPISSSICHLTNESDGHTTSLYGIGFGPFIITNKHLFRRNNGTLVVQSLHGVFKVKDTTTLQQHLVDGRDMIIIRMPKDFPPFPQKLKFREPQREERICLVTTNFQTKSMSSMVSDTSCTFPSGDGIFWKHWIQTKDGQCGSPLVSTRDGFIVGIHSASNFTNTNNYFTSVPKNFMELLTNQEAQQWVSGWRLNADSVLWGGHKVFMVKPEEPFQPVKEATQL

Variants of B1 are the subject of this assay. In words: raw area under fraction-flipped curve 0-4 h after induction (AUC4h, not background-subtracted), DNA-recorder readout of cleavage of the substrate (dimensionless); higher = more cleavage of the substrate by the protease variant. The note with it: temperature: 34 °C; time window: 0-4 h after rhamnose induction.
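Further: Bxb1 expression induced with 0.2% (w/v) L-rhamnose at OD600 near 0.5, cultures sampled hourly, flipped fraction per protease–substrate barcode pair counted by paired-end Illumina sequencing.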

As to MGESLFKGPRDYNPISSSICHLTNESDGHTTSLYGIGFGPFIITNKHLFRRNNGTLVVQSLHGVFKVKDTTTLQQHLVDGRWMIIIRMPKDFPPFPQKLKFREPQREERICLVTTNFQTKSMSSMVSDTSCTFPSGDGIFWKHWIQTKDGQCGSPLVSTRDGFIVGIHSASNFTNTNNYFTSVPKNFMELLTNQEAQQWVSGWRLNADSVLWGGHKVFMVKPEEPFQPVKEATQL [D82W], the “area with substrate ENLYDQS” value was 0.0707, the “area with substrate ENLYEQS” value amounted to 0.0697, the “area with substrate ENLYHQS” value was 0.059 and the “area with substrate ENLYIQS” value came out at 0.0538. The “area with substrate ENLYLQS” value turned out to be 0.0456, the “area with substrate ENLYMQS” value amounted to 0.0501, the “area with substrate ENLYNQS” value amounted to 0.0527 and the “area with substrate ENLYQQS” value worked out at 0.0656. In addition, the “area with substrate ENLYRQS” value turned out to be 0.0435, the “area with substrate ENLYSQS” value was 0.0594 and the “area with substrate ENLYYQS” value was determined as 0.0571.
Consider MGESLFKGPRDYNPISSSICHLTNESDGHTTSLYGIGFGPFIITNKHLFRRNNGTLVVQSLHGVFKVKDTTTLQQHLVDGRQMIIIRMPKDFPPFPQKLKFREPQREERICLVTTNFQTKSMSSMVSDTSCTFPSGDGIFWKHWIQTKDGQCGSPLVSTRDGFIVGIHSASNFTNTNNYFTSVPKNFMELLTNQEAQQWVSGWRLNADSVLWGGHKVFMVKPEEPFQPVKEATQL [D82Q], for which the “area with substrate ENLYDQS” value stood at 0.0644, the “area with substrate ENLYEQS” value was 0.0607, the “area with substrate ENLYGQS” value amounted to 0.0491 and the “area with substrate ENLYIQS” value worked out at 0.0535. The “area with substrate ENLYKQS” value turned out to be 0.0689, the “area with substrate ENLYLQS” value was determined as 0.0607, the “area with substrate ENLYMQS” value was found to be 0.0562 and the “area with substrate ENLYNQS” value was 0.0631. In addition, the “area with substrate ENLYPQS” value amounted to 0.0519, the “area with substrate ENLYQQS” value amounted to 0.063, the “area with substrate ENLYRQS” value stood at 0.0598 and the “area with substrate ENLYWQS” value was 0.0516. Besides, the “area with substrate ENLYYQS” value is 0.0842.
Turning to MGESLFKGPRDYNPISSSICHLTNESDGHTTSLYGIGFGPFIITNKHLFRRNNGTLVVQSLHGVFKVKDTTTLQQHLVDGRDMIIIRMPKDFPPFPQKLKFREPQREERICLVTTNFQTKSMSSMVSDTSCTFPSGDGIFWKHWIQTKDGQCGSPLVSTRDGFIVGIHSASNFTNTNNYFTSVPKNFYELLTNQEAQQWVSGWRLNADSVLWGGHKVFMVKPEEPFQPVKEATQL [M188Y], the “area with substrate ENLYDQS” value stood at 0.0569, the “area with substrate ENLYEQS” value worked out at 0.0745, the “area with substrate ENLYHQS” value is 0.0619 and the “area with substrate ENLYIQS” value came out at 0.139. For the same variant, the “area with substrate ENLYMQS” value was 0.0887, the “area with substrate ENLYNQS” value worked out at 0.0696, the “area with substrate ENLYPQS” value was 0.079 and the “area with substrate ENLYQQS” value was 0.0812. The “area with substrate ENLYRQS” value was 0.0564, the “area with substrate ENLYSQS” value is 0.0848, the “area with substrate ENLYVQS” value is 0.115 and the “area with substrate ENLYWQS” value was 0.0727. The “area with substrate ENLYYQS” value worked out at 0.0621.
In the case of MGESLFKGPRDYNPISSSICHLTNESDGHTTSLYGIGFGPFIITNKHLFRRNNGTLVVQSLHGVFKVKDTTTLQQHLVDGRDMIIERMPKDFPPFPQKLKFREPQREERICLVTTNFQTKSMSSMVSDTSCTFPSGDGIFWKHWIQTKDGQCGSPLVSTRDGFIVGIHSASNFTNTNNYFTSVPKNFMELLTNQEAQQWVSGWRLNADSVLWGGHKVFMVKPEEPFQPVKEATQL [I86E], the “area with substrate ENLYDQS” value turned out to be 0.0339, the “area with substrate ENLYGQS” value was found to be 0.0361, the “area with substrate ENLYHQS” value was determined as 0.0355 and the “area with substrate ENLYIQS” value was determined as 0.03. The “area with substrate ENLYKQS” value was 0.0263, the “area with substrate ENLYNQS” value came to 0.0334, the “area with substrate ENLYPQS” value was found to be 0.0081 and the “area with substrate ENLYQQS” value was found to be 0.0312. Moreover, the “area with substrate ENLYRQS” value was 0.0088, the “area with substrate ENLYTQS” value came out at 0.0301, the “area with substrate ENLYVQS” value was found to be 0.0447 and the “area with substrate ENLYWQS” value came to 0.0186.
With MGESLFKGPRDYNPISSSICHTTNESDGHTTSLYGIGFGPFIITNKHLFRRNNGTLVVQSLHGVFKVKDTTTLQQHLVDGRDMIIIRMPKDFPPFPQKLKFREPQREERICLVTTNFQTKSMSSMVSDTSCTFPSGDGIFWKHWIQTKDGQCGSPLVSTRDGFIVGIHSASNFTNTNNYFTSVPKNFMELLTNQEAQQWVSGWRLNADSVLWGGHKVFMVKPEEPFQPVKEATQL [L22T], the “area with substrate ENLYDQS” value was 0.0564, the “area with substrate ENLYEQS” value came to 0.0487, the “area with substrate ENLYGQS” value came to 0.0432 and the “area with substrate ENLYHQS” value worked out at 0.0542. Further, the “area with substrate ENLYIQS” value amounted to 0.0505, the “area with substrate ENLYKQS” value turned out to be 0.0578, the “area with substrate ENLYLQS” value worked out at 0.0272 and the “area with substrate ENLYMQS” value came to 0.0571. The “area with substrate ENLYNQS” value is 0.0513, the “area with substrate ENLYPQS” value came out at 0.0552, the “area with substrate ENLYQQS” value was determined as 0.0583 and the “area with substrate ENLYRQS” value was 0.0547. Besides, the “area with substrate ENLYSQS” value was 0.0594, the “area with substrate ENLYTQS” value was 0.0536, the “area with substrate ENLYVQS” value was found to be 0.0536 and the “area with substrate ENLYWQS” value was 0.0535. Moreover, the “area with substrate ENLYYQS” value was 0.0545.
With MGESLFKGPRDYNPISSSICHLTNESDGHTTSLYGIGFGPFIITNKHLFRRNNGTLVVYSLHGVFKVKDTTTLQQHLVDGRDMIIIRMPKDFPPFPQKLKFREPQREERICLVTTNFQTKSMSSMVSDTSCTFPSGDGIFWKHWIQTKDGQCGSPLVSTRDGFIVGIHSASNFTNTNNYFTSVPKNFMELLTNQEAQQWVSGWRLNADSVLWGGHKVFMVKPEEPFQPVKEATQL [Q59Y], the “area with substrate ENLYDQS” value was determined as 0.0539, the “area with substrate ENLYGQS” value stood at 0.0743, the “area with substrate ENLYHQS” value turned out to be 0.0723 and the “area with substrate ENLYKQS” value is 0.0632. Moreover, the “area with substrate ENLYLQS” value came to 0.0745, the “area with substrate ENLYNQS” value came out at 0.0642, the “area with substrate ENLYQQS” value worked out at 0.05 and the “area with substrate ENLYSQS” value was determined as 0.0465. Further, the “area with substrate ENLYVQS” value is 0.107.
As for MGESLFKGPRDYNPISSSICHLTNESDGHTTSLYGIGFGPFIITNKHLFRRNNGTLVVQSLHGVFKVKDTTTLQQHLVDGRDMIIIRMPKDFPPFPQKLKFREPQREERICLVTTNFQTKSMSSMVSDTSCTFPSGDGIEWKHWIQTKDGQCGSPLVSTRDGFIVGIHSASNFTNTNNYFTSVPKNFMELLTNQEAQQWVSGWRLNADSVLWGGHKVFMVKPEEPFQPVKEATQL [F140E], the “area with substrate ENLYDQS” value was 0.0648, the “area with substrate ENLYEQS” value stood at 0.0573, the “area with substrate ENLYGQS” value worked out at 0.0583 and the “area with substrate ENLYHQS” value was determined as 0.0672. Moreover, the “area with substrate ENLYIQS” value is 0.0534, the “area with substrate ENLYKQS” value was 0.0624, the “area with substrate ENLYMQS” value is 0.0616 and the “area with substrate ENLYNQS” value turned out to be 0.0533. Besides, the “area with substrate ENLYPQS” value worked out at 0.0637, the “area with substrate ENLYRQS” value was found to be 0.0631, the “area with substrate ENLYSQS” value worked out at 0.0537 and the “area with substrate ENLYVQS” value is 0.0586. The “area with substrate ENLYWQS” value turned out to be 0.0602 and the “area with substrate ENLYYQS” value came to 0.0445.
Turning to MGESLFKGPRDYNPISSSICHLTNESDGHTTSLYGIGFGPFIITNKHLFRRNNGTLVVQSLHGVFKVKDTTTLQQHLVDGRDMIIIRMPKDFPPFPQKLKFREPQREERICLVTTNFQTKSMSSMVSDTSCTFPSGDGIFWKHWIQTKDGQCGSPLVSTRDGFIVGIHSASNFTNTNNYFTSVPKNFMELLTNQEHQQWVSGWRLNADSVLWGGHKVFMVKPEEPFQPVKEATQL [A196H], the “area with substrate ENLYDQS” value was found to be 0.0649, the “area with substrate ENLYEQS” value came to 0.0703, the “area with substrate ENLYGQS” value is 0.0649 and the “area with substrate ENLYHQS” value came out at 0.0654. Besides, the “area with substrate ENLYIQS” value turned out to be 0.158, the “area with substrate ENLYKQS” value is 0.0553, the “area with substrate ENLYMQS” value came out at 0.0915 and the “area with substrate ENLYNQS” value was found to be 0.0753. Besides, the “area with substrate ENLYPQS” value is 0.0657, the “area with substrate ENLYQQS” value was found to be 0.0611, the “area with substrate ENLYRQS” value is 0.0722 and the “area with substrate ENLYSQS” value is 0.0677. For the same variant, the “area with substrate ENLYVQS” value is 0.118 and the “area with substrate ENLYYQS” value was 0.0742.
With MGESLFKGPRDYNPISSSICHLTNESDGHTTSLYGIGFGPFIITNKHLFRRNNGTLVVQSLHGVFKVKDTTTLQQHLVDGRDMIIIRMPKDFPPFPQKLKFREPQREERICLVTTNFQTKSMSSMVSDTSCTFPSGDGIFWKHWIQTKDGQCGSPLVSTRDGFIVGIHSASNFTNTNNYFTSVPKNFMELLTNQEQQQWVSGWRLNADSVLWGGHKVFMVKPEEPFQPVKEATQL [A196Q], the “area with substrate ENLYDQS” value turned out to be 0.0743, the “area with substrate ENLYEQS” value worked out at 0.0666, the “area with substrate ENLYGQS” value is 0.0609 and the “area with substrate ENLYHQS” value turned out to be 0.0677. For the same variant, the “area with substrate ENLYMQS” value turned out to be 0.0932, the “area with substrate ENLYNQS” value stood at 0.073, the “area with substrate ENLYPQS” value stood at 0.0775 and the “area with substrate ENLYRQS” value was determined as 0.0711. Moreover, the “area with substrate ENLYSQS” value worked out at 0.0752 and the “area with substrate ENLYVQS” value came out at 0.0894.
